Source: publication PMC5062570 (Nature Communications, 2016)

What was measured:
[1] = target: PF-7802-labelled proteins in ARPE-19 cells (Homo sapiens, UniProt O14745)
[2] = target: PF-7802-labelled proteins in ARPE-19 cells (Homo sapiens, UniProt O15173); settings: replicates in separate columns
[3] = target: PF-7802-labelled proteins in ARPE-19 cells (Homo sapiens, UniProt O95782); settings: protein AP2A1 AP-2 complex subunit alpha-1 (O95782)
[4] = target: T1, PF-7802-labelled proteins in ARPE-19 cells (Homo sapiens, UniProt P08195); settings: for Median SILAC Ratio (Heavy/Light): SLC3A2 4F2 cell-surface antigen heavy chain (P08195)
T1 sequence (P08195 1-529): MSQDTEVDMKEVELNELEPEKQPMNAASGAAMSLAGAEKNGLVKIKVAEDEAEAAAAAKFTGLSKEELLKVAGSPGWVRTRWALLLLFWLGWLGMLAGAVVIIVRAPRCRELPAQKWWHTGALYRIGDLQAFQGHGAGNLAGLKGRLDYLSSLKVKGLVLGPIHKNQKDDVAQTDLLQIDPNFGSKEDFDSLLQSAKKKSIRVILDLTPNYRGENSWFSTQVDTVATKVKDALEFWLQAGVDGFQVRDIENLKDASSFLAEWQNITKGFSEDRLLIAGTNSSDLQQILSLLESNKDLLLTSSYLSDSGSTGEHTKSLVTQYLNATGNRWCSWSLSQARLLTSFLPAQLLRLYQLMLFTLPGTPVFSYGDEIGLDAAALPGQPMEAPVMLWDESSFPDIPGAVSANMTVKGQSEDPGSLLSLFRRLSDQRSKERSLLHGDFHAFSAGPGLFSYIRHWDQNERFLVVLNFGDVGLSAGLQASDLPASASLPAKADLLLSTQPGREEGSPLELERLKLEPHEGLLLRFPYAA

[5] = target: PF-7802-labelled proteins in ARPE-19 cells (Homo sapiens, UniProt P28331); settings: protein NDUFS1 NADH-ubiquinone oxidoreductase 75 kDa subunit, mitochondrial (P28331); replicates in separate columns
[6] = target: PF-7802-labelled proteins in ARPE-19 cells (Homo sapiens, UniProt P30038); settings: protein ALDH4A1 Delta-1-pyrroline-5-carboxylate dehydrogenase, mitochondrial (P30038)
[7] = target: T2, PF-7802-labelled proteins in ARPE-19 cells (Homo sapiens, UniProt P40926); settings: for Median SILAC Ratio (Heavy/Light): protein MDH2 Malate dehydrogenase, mitochondrial (P40926), replicates in separate columns
T2 sequence (P40926 25-338): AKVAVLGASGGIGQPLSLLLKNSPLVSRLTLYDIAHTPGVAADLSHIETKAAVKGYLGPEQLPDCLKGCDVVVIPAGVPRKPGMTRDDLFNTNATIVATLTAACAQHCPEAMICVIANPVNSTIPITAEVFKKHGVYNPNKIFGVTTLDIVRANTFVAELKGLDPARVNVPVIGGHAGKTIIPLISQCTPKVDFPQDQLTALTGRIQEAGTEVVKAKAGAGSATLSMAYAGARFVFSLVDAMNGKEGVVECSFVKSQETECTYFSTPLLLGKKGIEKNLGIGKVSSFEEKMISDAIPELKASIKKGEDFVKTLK

[8] = target: PF-7802-labelled proteins in ARPE-19 cells (Homo sapiens, UniProt P42765); settings: protein ACAA2 3-ketoacyl-CoA thiolase, mitochondrial (P42765)
UniProt P42765, sequence (P42765 whole entry): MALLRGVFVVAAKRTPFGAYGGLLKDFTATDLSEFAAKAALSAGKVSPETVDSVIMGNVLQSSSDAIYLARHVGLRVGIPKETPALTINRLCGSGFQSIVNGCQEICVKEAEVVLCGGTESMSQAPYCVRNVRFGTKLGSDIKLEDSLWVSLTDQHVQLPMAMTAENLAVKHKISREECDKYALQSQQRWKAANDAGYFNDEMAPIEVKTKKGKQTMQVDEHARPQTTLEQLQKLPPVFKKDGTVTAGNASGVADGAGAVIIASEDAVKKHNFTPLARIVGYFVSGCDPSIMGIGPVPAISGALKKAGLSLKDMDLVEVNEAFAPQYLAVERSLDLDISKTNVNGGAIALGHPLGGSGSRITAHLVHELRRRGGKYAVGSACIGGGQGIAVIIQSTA

[9] = target: PF-7802-labelled proteins in ARPE-19 cells (Homo sapiens, UniProt P49411); settings: for Median SILAC Ratio (Heavy/Light): TUFM Elongation factor Tu, mitochondrial (P49411)
[10] = target: PF-7802-labelled proteins in ARPE-19 cells (Homo sapiens, UniProt P68431); settings: protein HIST1H3J Histone H3.1 (P68431); one column per replicate
[11] = target: PF-7802-labelled proteins in ARPE-19 cells (Homo sapiens, UniProt Q07666); settings: protein KHDRBS1 KH domain-containing, RNA-binding, signal transduction-associated protein 1 (Q07666); one column per replicate
UniProt Q07666, sequence (Q07666 whole entry, the tested form may be a part): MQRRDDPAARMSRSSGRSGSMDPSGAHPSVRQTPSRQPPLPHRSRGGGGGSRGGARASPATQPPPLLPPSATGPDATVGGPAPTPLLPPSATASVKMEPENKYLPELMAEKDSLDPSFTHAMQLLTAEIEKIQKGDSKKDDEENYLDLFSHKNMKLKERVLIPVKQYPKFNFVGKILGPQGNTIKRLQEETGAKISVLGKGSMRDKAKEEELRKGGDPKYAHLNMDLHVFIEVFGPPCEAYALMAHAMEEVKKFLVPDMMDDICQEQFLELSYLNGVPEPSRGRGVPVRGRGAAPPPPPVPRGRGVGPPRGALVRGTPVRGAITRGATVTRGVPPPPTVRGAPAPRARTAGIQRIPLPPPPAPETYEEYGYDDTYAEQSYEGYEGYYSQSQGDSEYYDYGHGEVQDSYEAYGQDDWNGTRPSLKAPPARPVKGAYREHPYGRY

[12] = target: PF-7802-labelled proteins in ARPE-19 cells (Homo sapiens, UniProt Q5SSJ5); settings: protein HP1BP3 Heterochromatin protein 1-binding protein 3 (Q5SSJ5); one column per replicate
UniProt Q5SSJ5, sequence (Q5SSJ5 whole entry): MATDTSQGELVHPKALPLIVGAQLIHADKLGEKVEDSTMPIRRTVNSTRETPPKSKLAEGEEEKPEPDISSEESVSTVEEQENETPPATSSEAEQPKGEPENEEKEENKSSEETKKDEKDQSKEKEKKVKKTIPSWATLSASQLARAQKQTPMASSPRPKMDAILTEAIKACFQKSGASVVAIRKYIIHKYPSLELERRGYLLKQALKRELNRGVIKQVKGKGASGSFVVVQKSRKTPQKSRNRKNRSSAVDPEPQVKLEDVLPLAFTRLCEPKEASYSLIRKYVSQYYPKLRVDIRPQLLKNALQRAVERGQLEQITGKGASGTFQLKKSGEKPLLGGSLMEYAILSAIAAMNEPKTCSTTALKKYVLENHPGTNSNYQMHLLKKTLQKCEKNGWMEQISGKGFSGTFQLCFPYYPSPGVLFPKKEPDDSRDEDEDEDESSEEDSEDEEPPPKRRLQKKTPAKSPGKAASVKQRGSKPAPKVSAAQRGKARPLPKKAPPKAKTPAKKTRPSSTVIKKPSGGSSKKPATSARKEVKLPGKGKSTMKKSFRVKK

[13] = target: PF-7802-labelled proteins in ARPE-19 cells (Homo sapiens, UniProt Q7Z794); settings: protein KRT77 Keratin, type II cytoskeletal 1b (Q7Z794); one column per replicate
UniProt Q7Z794, sequence (Q7Z794 whole entry): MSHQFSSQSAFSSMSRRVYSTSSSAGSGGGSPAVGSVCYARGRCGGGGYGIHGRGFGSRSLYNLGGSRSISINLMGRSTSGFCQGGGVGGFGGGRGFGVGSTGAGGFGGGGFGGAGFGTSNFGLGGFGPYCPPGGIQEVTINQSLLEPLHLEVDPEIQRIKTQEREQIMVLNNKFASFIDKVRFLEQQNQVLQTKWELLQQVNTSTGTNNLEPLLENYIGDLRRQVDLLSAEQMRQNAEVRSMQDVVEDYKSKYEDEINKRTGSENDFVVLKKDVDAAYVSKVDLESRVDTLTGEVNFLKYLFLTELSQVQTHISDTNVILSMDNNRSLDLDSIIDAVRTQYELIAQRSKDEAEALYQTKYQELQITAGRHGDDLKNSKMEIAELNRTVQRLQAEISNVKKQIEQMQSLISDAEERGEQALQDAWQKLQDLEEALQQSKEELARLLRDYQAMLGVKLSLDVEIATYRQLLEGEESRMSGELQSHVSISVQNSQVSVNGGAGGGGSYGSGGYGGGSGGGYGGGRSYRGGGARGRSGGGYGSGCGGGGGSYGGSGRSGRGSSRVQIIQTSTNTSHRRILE

[14] = target: PF-7802-labelled proteins in ARPE-19 cells (Homo sapiens, UniProt Q9NZM1); settings: for Median SILAC Ratio (Heavy/Light): protein MYOF Myoferlin (Q9NZM1), replicates in separate columns
UniProt Q9NZM1, sequence (Q9NZM1 whole entry): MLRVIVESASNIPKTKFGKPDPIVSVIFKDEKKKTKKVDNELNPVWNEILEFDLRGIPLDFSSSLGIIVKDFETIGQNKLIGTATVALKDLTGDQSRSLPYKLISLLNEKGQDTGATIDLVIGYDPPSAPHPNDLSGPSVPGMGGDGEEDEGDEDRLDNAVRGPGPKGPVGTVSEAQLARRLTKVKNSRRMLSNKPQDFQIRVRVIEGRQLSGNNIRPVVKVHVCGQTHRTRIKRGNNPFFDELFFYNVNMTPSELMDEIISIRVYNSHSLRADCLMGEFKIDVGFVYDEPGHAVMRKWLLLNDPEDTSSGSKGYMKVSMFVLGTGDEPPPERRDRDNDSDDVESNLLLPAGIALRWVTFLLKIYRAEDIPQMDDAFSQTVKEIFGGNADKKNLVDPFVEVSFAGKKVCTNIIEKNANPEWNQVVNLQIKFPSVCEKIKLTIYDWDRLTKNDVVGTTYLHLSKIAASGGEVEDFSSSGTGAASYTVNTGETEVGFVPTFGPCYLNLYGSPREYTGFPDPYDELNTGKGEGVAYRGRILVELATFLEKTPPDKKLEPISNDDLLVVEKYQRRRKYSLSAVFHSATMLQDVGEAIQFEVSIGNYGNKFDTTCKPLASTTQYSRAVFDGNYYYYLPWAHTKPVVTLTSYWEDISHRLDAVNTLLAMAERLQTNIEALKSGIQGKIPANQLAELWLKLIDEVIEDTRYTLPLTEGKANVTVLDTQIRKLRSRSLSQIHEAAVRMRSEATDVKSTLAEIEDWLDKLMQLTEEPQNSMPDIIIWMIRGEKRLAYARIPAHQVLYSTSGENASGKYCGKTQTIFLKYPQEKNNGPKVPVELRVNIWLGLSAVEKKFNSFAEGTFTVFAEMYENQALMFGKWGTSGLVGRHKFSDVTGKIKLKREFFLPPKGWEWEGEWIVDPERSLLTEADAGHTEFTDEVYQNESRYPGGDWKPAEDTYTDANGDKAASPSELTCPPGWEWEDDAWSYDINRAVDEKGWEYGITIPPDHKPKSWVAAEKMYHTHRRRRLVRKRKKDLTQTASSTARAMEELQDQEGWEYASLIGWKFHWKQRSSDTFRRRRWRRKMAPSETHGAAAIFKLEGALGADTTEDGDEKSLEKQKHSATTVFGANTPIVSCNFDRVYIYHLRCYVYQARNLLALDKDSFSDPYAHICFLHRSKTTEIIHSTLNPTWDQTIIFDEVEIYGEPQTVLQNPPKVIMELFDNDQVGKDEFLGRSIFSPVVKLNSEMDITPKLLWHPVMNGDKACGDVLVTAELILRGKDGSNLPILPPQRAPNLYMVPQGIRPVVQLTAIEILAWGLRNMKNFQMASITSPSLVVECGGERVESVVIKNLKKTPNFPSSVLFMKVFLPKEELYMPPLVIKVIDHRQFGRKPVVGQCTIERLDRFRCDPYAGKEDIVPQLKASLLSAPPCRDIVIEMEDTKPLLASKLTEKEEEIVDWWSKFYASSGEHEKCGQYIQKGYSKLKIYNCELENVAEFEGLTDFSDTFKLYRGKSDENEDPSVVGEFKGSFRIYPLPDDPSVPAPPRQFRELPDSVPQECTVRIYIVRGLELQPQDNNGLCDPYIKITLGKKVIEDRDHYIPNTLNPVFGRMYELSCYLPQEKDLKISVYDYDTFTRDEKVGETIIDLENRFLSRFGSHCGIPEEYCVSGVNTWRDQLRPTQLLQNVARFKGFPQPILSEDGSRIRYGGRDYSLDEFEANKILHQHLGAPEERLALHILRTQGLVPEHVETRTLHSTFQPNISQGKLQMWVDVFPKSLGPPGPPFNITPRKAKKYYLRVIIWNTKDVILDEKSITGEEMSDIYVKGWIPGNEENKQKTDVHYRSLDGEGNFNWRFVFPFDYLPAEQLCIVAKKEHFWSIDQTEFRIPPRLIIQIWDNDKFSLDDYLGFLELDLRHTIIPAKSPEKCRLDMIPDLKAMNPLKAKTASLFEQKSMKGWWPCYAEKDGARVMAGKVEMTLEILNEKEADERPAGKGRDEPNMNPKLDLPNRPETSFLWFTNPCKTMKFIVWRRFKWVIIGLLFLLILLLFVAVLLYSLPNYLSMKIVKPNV

[15] = target: PF-7802-labelled proteins in ARPE-19 cells (Homo sapiens, UniProt Q9Y2X3); settings: protein NOP58 Nucleolar protein 58 (Q9Y2X3); replicates in separate columns

UniProt O14745, sequence (O14745 whole entry): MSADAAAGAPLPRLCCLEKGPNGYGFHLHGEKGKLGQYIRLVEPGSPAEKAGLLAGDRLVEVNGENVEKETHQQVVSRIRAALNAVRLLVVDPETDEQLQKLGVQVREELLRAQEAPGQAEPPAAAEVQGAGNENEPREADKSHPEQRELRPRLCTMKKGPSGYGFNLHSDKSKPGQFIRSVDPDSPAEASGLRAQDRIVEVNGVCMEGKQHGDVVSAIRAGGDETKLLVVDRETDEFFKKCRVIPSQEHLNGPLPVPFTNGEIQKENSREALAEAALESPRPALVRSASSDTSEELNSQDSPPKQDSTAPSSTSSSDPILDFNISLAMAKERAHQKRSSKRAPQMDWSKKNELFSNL
UniProt O15173, sequence (O15173 whole entry): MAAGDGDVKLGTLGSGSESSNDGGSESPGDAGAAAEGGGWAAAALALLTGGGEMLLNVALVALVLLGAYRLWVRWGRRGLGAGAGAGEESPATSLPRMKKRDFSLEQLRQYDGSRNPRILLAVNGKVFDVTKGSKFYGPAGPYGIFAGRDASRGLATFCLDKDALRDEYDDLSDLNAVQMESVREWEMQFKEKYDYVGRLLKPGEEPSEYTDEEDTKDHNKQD

Row | Structure (SMILES) | Median SILAC Ratio (Heavy/Light) [3] | Median SILAC Ratio (Heavy/Light) [4] | Median SILAC Ratio (Heavy/Light) [5] | Median SILAC Ratio (Heavy/Light) [6] | Median SILAC Ratio (Heavy/Light) [7] | Median SILAC Ratio (Heavy/Light) [8] | Median SILAC Ratio (Heavy/Light) [9] | Median SILAC Ratio (Heavy/Light) [10] | Median SILAC Ratio (Heavy/Light) [11] | Median SILAC Ratio (Heavy/Light) [12] | Median SILAC Ratio (Heavy/Light) [13] | Median SILAC Ratio (Heavy/Light) [14] | Median SILAC Ratio (Heavy/Light) [15] | further results
1 | CNC1CCN(C(=O)C[C@@H](Cc2ccccc2)C(=O)N[C@@H](CSC)C(=O)N[C@@H](CC2CCCCC2)[C@@H](O)C(=O)OC(C)C)CC1 [CP-108671, reference compound] | 1.064 | 1.137 | 0.9207 | 0.9934 | 1.243 | 1.345 | 1.206 | 1.079 | 0.9475 | 1.678 | 76.8053 | 1.091 | 0.8956 | Median SILAC Ratio (Heavy/Light) ([1]; SLC9A3R1 Na(+)/H(+) exchange regulatory cofactor NHE-RF1 (O14745)): 1.105; Median SILAC Ratio (Heavy/Light) ([2]; protein PGRMC2 Membrane-associated progesterone receptor component 2 (O15173)): 1.254; SILAC ratio (DMSO/CP-108671) ([4]; P08195 SLC3A2 4F2 cell-surface antigen heavy chain): 0.88; SILAC ratio (DMSO/CP-108671) ([7]; P40926 MDH2 Malate dehydrogenase, mitochondrial): 0.80; SILAC ratio (DMSO/CP-108671) ([9]; P49411 TUFM Elongation factor Tu, mitochondrial): 0.83; SILAC ratio (DMSO/CP-108671) ([14]; Q9NZM1 MYOF Myoferlin): 0.92
2 | Cc1cc([C@H]2C[C@H]3[C@@H](C)SC(N)=N[C@@]3(c3ccc(F)cc3F)CO2)on1 [PF-9283] | 1.468 | 1.447 | 0.9905 | 1.729 | 1.345 | 1.484 | 1.411 | 1.208 | 1.129 | 1.229 and 0.8745 | 33.4664 and 50.9514 | 1.388 | 1.104 | Median SILAC Ratio (Heavy/Light) [1]: 1.07 and 1.227; Median SILAC Ratio (Heavy/Light) ([2]; […]): 1.341

Where “and” joins values, the source holds several entries; their conditions need not be identical. Identical values can stand only once. Like-named read-outs stand apart in the source and are kept apart here.
